Experimental data: PubChem BioAssay AID686971 (National Center for Advancing Translational Sciences (NCATS), 2013)
In all, about 360,000 compounds went through this assay and about 7,500 (2.1%) were called active. This list was built around the results that the source calls inconclusive (neither active nor inactive); the mix of calls is not that of the screen. Calls come from the whole dose curve; as a rule, active = well fitted cell-killing curve with a large enough effect; inconclusive = small, poorly fitted or top-dose-only effect, or effect the other way, or another doubt; inactive = no such curve, though single readings can be large or run the other way. Potencies of inconclusive entries are left out as doubtful fits.
Potency is the fitted concentration of half-maximal effect; tags give direction and shape of the fitted curve.

Experiment: qHTS for induction of synthetic lethality in tumor cells producing 2HG: qHTS for the HT-1080-IDH1KD cell line;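 for activity, negative = toxicity: 0% = DMSO wells and -100% = cell-free medium wells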
Conditions: HT-1080 IDH1 knockdown viability, ATP luminescence, 48 h; activity, negative = toxicity: at 46.1 µM (top of the series) unless noted
Method in brief: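 HT-1080-IDH1KD cells (IDH1 knocked down), 750/well in RPMI with 5% FBS, treated with compound 48 h at 37 degrees C. Viability by CellTiter-Glo luminescence, normalised to DMSO and no-cell wells; concentration-response curves classed.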
With CN(Cc1cnn(C)c1)S(=O)(=O)c1cccc([N+](=O)[O-])c1 the “activity, negative = toxicity” value was inactive: 7.67%. In the case of O=C1C=C(NC2CCCC2)CC(c2ccccc2)C1 (stereo not given), the Potency is reported as inconclusive [cytotoxic, single point]. For Cc1ccc(S(=O)(=O)N/N=C/c2cc(Br)c(C)o2)cc1, the activity, negative = toxicity was inactive: 14.7% [at 9.24 µM]. In the case of O=C1CC(c2ccccc2)CC(O)=C1C=NCc1ccccc1Cl (stereo not given), the Potency is reported as inconclusive [cytotoxic, partial curve]. For Cc1ccc(S(=O)(=O)Nc2ncc(C(F)(F)F)cc2Cl)cc1, the “activity, negative = toxicity” value was inactive: -5.18%. With COCc1cc(C)nc(OCC(=O)N/N=C/c2ccc(O)cc2O)c1C#N the Potency was inconclusive [cytotoxic, partial curve]. For COc1ccc(-c2csc(NC(=O)c3c(C)noc3C)n2)cc1OC, the “activity, negative = toxicity” value was inactive: 2.55%. For Cc1ccc(S(=O)(=O)n2nccc2-c2c(-c3ccc(Cl)cc3)noc2C)cc1, the Potency was inconclusive [cytotoxic, partial curve, poor fit]. With Cc1cc(C)c(C#N)c(SCC(=O)c2ccc(Cl)cc2Cl)n1 the Potency was inconclusive [cytotoxic, single point]. In the case of CCS(=O)(=O)N1CCC(C(=O)N2CCOCC2)CC1, the Potency is reported as inconclusive [rising, single point]. In the case of CC(/C=N/NC(=O)Cc1cc(=O)[nH][nH]1)=C\c1ccccc1, the “activity, negative = toxicity” value is reported as inactive: 0.729%. In the case of CCOC(=O)C1=C[C@@H](C(C)(C)C)N(S(=O)(=O)c2ccccc2C)[C@H]1c1ccc(Cl)cc1, the Potency is reported as inconclusive [cytotoxic, single point]. With CC1(C(=O)NS(=O)(=O)c2ccc(F)cc2F)CCN1C(=O)Cc1cc(F)ccc1F (stereo not given) the “activity, negative = toxicity” value was inactive: 9.25%. In the case of CC(=O)NCCNC(=O)C1(C)Cc2c(-c3cccc(C(F)(F)F)c3)ccnc2O1 (stereo not given), the “activity, negative = toxicity” value is reported as inactive: 5.45%. For O=C(NN=C1CCCC1)C1COc2ccccc2O1 (stereo not given), the Potency was inconclusive [cytotoxic, single point]. In the case of COc1ccc(C(=O)C[n+]2ccc(-c3nnc4n3CCCCC4)cc2)cc1, the “activity, negative = toxicity” value is reported as inactive: 17.9%. For CC[C@H](C)[C@@H](CN[C@H](C)CNC)NCCC(c1ccccc1)c1ccccc1, the Potency was inconclusive [cytotoxic, single point]. In the case of CCOC(=O)Nc1nnc(-c2ccccc2OC)s1, the Potency is reported as inconclusive [cytotoxic, single point]. With CCOC(=O)N1CCN(S(=O)(=O)c2ccc(OCC)c3ccccc23)CC1 the Potency was inconclusive [cytotoxic, single point]. With COc1ccc(-c2cnnc(N/N=C/c3ccc(-c4ccc([N+](=O)[O-])cc4)o3)n2)cc1 the Potency was inconclusive [cytotoxic, single point].
